From the supplement of paper PMC3334620
Whole data set: some 33,000 sequences, median “E-score (-0.5 to 0.5)” near -0.017, cut for the highest 2% near 0.3. The list shows a part of the results.

target: T1, Sut1 (UniProt P53032); assay: PBM E-score (8-mer binding enrichment) (E-score (-0.5 to 0.5)); higher = stronger / more preferred TF binding; most listed sequences are background and not binding sites; conditions: protein concentration: 200 nM; construct: GST-full length
T1 sequence: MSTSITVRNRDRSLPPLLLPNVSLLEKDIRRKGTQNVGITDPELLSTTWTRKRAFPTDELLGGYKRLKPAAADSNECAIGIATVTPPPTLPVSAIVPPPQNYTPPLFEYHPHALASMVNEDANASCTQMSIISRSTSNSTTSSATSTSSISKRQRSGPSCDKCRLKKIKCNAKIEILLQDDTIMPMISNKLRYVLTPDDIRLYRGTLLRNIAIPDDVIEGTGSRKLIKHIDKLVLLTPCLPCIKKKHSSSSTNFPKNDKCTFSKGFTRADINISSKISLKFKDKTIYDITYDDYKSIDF
Method in brief: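 Universal all-10-mer Agilent arrays, fresh or stripped once, were converted to double-stranded form by primer extension. GST-tagged yeast transcription factors from PURExpress in vitro transcription/translation, full-length or DNA-binding domain only, were applied at about 100-200 nM and detected with fluorescent anti-GST. After masliner normalisation, the Universal PBM Analysis Suite scored each ungapped eight-base word together with its reverse complement by E-score.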

Row | Sequence | PBM E-score
1 | ACAGGTCG | -0.161
2 | ATAGTTAC | 0.148
3 | AATTGTGG | 0.0677
4 | TCTCATCA | 0.184
5 | CTGTAGGC | -0.132
6 | GGCTCTGA | -0.112
7 | GTGGGGCA | -0.31
8 | ATCACTTA | 0.174
9 | ATTAATCG | 0.162
10 | CTACACTA | -0.103
11 | GGTGTAAA | 0.034
12 | CTTACTTA | 0.11
13 | CACGTTAC | -0.132
14 | CTGTGTTA | 0.0581
15 | GGTTTCTA | 0.125
16 | ATTATCCA | 0.12
17 | GTCGTTCA | -0.0765
18 | CTACGGCA | -0.0588
19 | GATTTAAC | 0.255
20 | CCGGCCAA | 0.0275
21 | AATGCCAG | -0.103
22 | CCTGCATC | -0.178
23 | ACGATACT | 0.00477
24 | ATGCGTAG | 0.0426
25 | CTACATAC | 0.103

Row | Sequence | PBM E-score
26 | CGGCGAGA | -0.146
27 | ATGCCACC | -0.161
28 | ATTATAGC | 0.0353
29 | GCTGGCGA | -0.0978
30 | CAGTGGAC | -0.146
31 | ATGCCTCA | 0.049
32 | CGGAGCAG | 0.216
33 | TAGTCGAA | 0.163
34 | AGTACGAA | 0.2
35 | TATATGCA | 0.071
36 | CGCCAGCA | -0.0929
37 | GTAGTAGA | -0.0221
38 | CAACAACA | 0.089
39 | CCGCACCC | -0.0835
40 | CGCCGACC | -0.215
41 | ACGCCCAG | -0.128
42 | CGAAGAGA | 0.00695
43 | AGGCATCA | -0.134
44 | TCAGATAA | 0.108
45 | AGATCGCA | -0.067
46 | AACAGTCC | 0.115
47 | GGCGGGCA | -0.0949
48 | ACGGACCT | 0.339
49 | AGGAAGCG | -0.0473
50 | AGAAGGTG | -0.0206

Row | Sequence | PBM E-score
51 | GGGGTAAA | 0.0285
52 | AGTAGGAG | -0.153
53 | AGAAAGCT | 0.126
54 | CTGGATGA | -0.113
55 | GGGACTGA | -0.185
56 | CCGCTAGA | -0.146
57 | ATACACTG | -0.0685
58 | GCTGGGAC | -0.235
59 | ACACTCGG | 0.00116
60 | GACATACC | -0.0943
61 | AATCTTTC | 0.158
62 | AATCCGTA | 0.00996
63 | GCACCCTA | -0.283
64 | AATCACTG | -0.0225
65 | GTATGAAC | 0.0827
66 | CACTGCTC | -0.193
67 | CGGTGCGC | -0.0148
68 | GGTTATAC | 0.132
69 | CACGTCTA | -0.115
70 | CGCGAGCG | -0.018
71 | ATGAGAAT | 0.122
72 | ATATACCC | 0.00468
73 | AGGTCTGG | -0.107
74 | AAGACACT | 0.0476
75 | AGTTCTTA | 0.265

Row | Sequence | PBM E-score
76 | CGCACGAG | -0.192
77 | CTATACAG | 0.011
78 | CGTGCTGC | -0.239
79 | AATAGATG | 0.0604
80 | GTTAGTTA | 0.2
81 | ACACTCGA | -0.106
82 | GCCGAGCC | -0.0648
83 | CACTGTCC | -0.0421
84 | GTACTTTA | 0.0311
85 | CCCAGCCG | -0.222
86 | CTCTCCGC | 0.18
87 | CATTTGAA | 0.129
88 | AACTGATA | 0.141
89 | CTGCAACC | -0.219
90 | CCCTAGGC | -0.079
91 | GGACCTTA | 0.0194
92 | CGTACTAG | -0.084
93 | TAGTGAAA | 0.0592
94 | AGAGGCGG | -0.235
95 | CTACCCGA | -0.172
96 | ATGACCGA | -0.0778
97 | GGTACCAA | -0.168
98 | ATTTTCTA | 0.168
99 | AAAAGTTC | 0.155
100 | CGGGCACC | -0.0506

Row | Sequence | PBM E-score
101 | AAACTCTG | 0.0958
102 | TATACCCA | -0.101
103 | ATGCGTAA | 0.104
104 | CCCTTGCG | -0.327
105 | AGTGTATC | 0.107
106 | CGCAAGTC | -0.0634
107 | AGGGTCGG | 0.00639
108 | CGGGTATA | -0.0045
109 | AGAGCACT | -0.0589
110 | CATAAGGG | 0.0764
111 | CCGCTGGC | -0.262
112 | GAAACACC | 0.043
113 | AGCCTATA | 0.0833
114 | GCCCACTA | -0.133
115 | AGTCCCCG | -0.0846
116 | AATTGATC | 0.0536
117 | AGTGAGAT | -0.0216
118 | GGTCTAAA | -0.034
119 | CTCCACCA | -0.186
120 | ACATACGG | -0.0182
121 | TAAGACCA | 0.0113
122 | CGAGCTGC | -0.0444
123 | ACTTTCTA | 0.167
124 | GAAACAAC | 0.107
125 | GGACCAGA | -0.155

Row | Sequence | PBM E-score
126 | AGAACTGG | -0.126
127 | GGGGGCTA | -0.316
128 | AACGACCA | 0.113
129 | AATACTGA | 0.126
130 | AATGGCAT | 0.249
131 | ATGCTTCA | -0.0137
132 | GGAGGACA | -0.192
133 | TACAGGGA | -0.136
134 | AAGCGACC | 0.0829
135 | CGTCGGAC | 0.247
136 | ATCGTACC | -0.201
137 | AAGTCCAA | 0.203
138 | CAGCTTAC | -0.121
139 | GGTAGGCA | -0.163
140 | AATTTCCA | 0.283
141 | CACGCAAA | 0.0258
142 | GGGACTAA | -0.0778
143 | AAAGGTGC | -0.1
144 | AGCTGCTC | -0.101
145 | CGAGTTGA | 0.0421
146 | GCGCATCA | -0.013
147 | GCACGGAA | 0.0509
148 | AGGTAGAA | 0.0219
149 | AAAAGGGC | -0.0466
150 | AGTGATGA | -0.0599

Row | Sequence | PBM E-score
151 | GTGAGTTA | -0.0473
152 | CGCGGGAA | 0.00645
153 | CCGCCGAA | 0.177
154 | ACCCAGGC | -0.0292
155 | GGAGATCA | 0.071
156 | CAACTGAA | 0.00253
157 | ATGGGGCA | -0.188
158 | AGTATTAA | 0.202
159 | CTCGCAAG | -0.0823
160 | ACATCTAT | 0.17
161 | CTCCAGAA | -0.159
162 | CTCGGGGA | 0.164
163 | AAGACATA | 0.116
164 | AACAAGTC | 0.0915
165 | AGCACCCC | -0.323
166 | GGACATAA | 0.186
167 | AGGCTAAC | -0.0671
168 | CCTCACTC | 0.0324
169 | CGGCGGTC | -0.16
170 | CAACACCC | -0.118
171 | GTGTTGTA | 0.0707
172 | CTCGCCCC | -0.298
